# Substitutions are numbered along the chain they refer to; changes in the protein carry UniProt numbers. This is one part of the list.
# B1: ACACACA (DNA:RNA)
# RNA: GGGAGACCGGAAUUCAGAUUGUCCACACACAUUAAAUCCCGUCGUAGCCACCA
# DNA 1: CAATCTGAATTCCGGTCTCCC
# DNA 2: TGGTGGCTACGACGGGATT
# B2: AUUUUUC (DNA:RNA)
# RNA: B1 RNA with C26U, A27U, C28U, A29U, C30U, A31C
# DNA 1: CAATCTGAATTCCGGTCTCCC
# DNA 2: TGGTGGCTACGACGGGATT
# B3: AGAUCAC (DNA:RNA)
# RNA: B1 RNA with C26G, C28U, A29C, C30A, A31C
# DNA 1: CAATCTGAATTCCGGTCTCCC
# DNA 2: TGGTGGCTACGACGGGATT
# B4: AACUACG (DNA:RNA)
# RNA: B1 RNA with C26A, A27C, C28U, A31G
# DNA 1: CAATCTGAATTCCGGTCTCCC
# DNA 2: TGGTGGCTACGACGGGATT
# B5: ACUAUAA (DNA:RNA)
# RNA: B1 RNA with A27U, C28A, A29U, C30A
# DNA 1: CAATCTGAATTCCGGTCTCCC
# DNA 2: TGGTGGCTACGACGGGATT
# B6: UUAAUCU (DNA:RNA)
# RNA: B1 RNA with A25U, C26U, C28A, A29U, A31U
# DNA 1: CAATCTGAATTCCGGTCTCCC
# DNA 2: TGGTGGCTACGACGGGATT
# B7: UACGUAC (DNA:RNA)
# RNA: GGGAGACCGGAAUUCAGAUUGUCCUACGUACUUAAAUCCCGUCGUAGCCACCA
# DNA 1: CAATCTGAATTCCGGTCTCCC
# DNA 2: TGGTGGCTACGACGGGATT
# B8: UGAUCCU (DNA:RNA)
# RNA: B1 RNA with A25U, C26G, C28U, A29C, A31U
# DNA 1: CAATCTGAATTCCGGTCTCCC
# DNA 2: TGGTGGCTACGACGGGATT
# B9: UAGCCGU (DNA:RNA)
# RNA: B7 RNA with C27G, G28C, U29C, A30G, C31U
# DNA 1: CAATCTGAATTCCGGTCTCCC
# DNA 2: TGGTGGCTACGACGGGATT
# B10: CGACGAA (DNA:RNA)
# RNA: B1 RNA with A25C, C26G, A29G, C30A
# DNA 1: CAATCTGAATTCCGGTCTCCC
# DNA 2: TGGTGGCTACGACGGGATT
# B11: CCCAGGA (DNA:RNA)
# RNA: B1 RNA with A25C, A27C, C28A, A29G, C30G
# DNA 1: CAATCTGAATTCCGGTCTCCC
# DNA 2: TGGTGGCTACGACGGGATT
# B12: GGUUAAC (DNA:RNA)
# RNA: B7 RNA with U25G, A26G, C27U, G28U, U29A
# DNA 1: CAATCTGAATTCCGGTCTCCC
# DNA 2: TGGTGGCTACGACGGGATT
# B13: ACUGUGU (DNA:RNA)
# RNA: B1 RNA with A27U, C28G, A29U, C30G, A31U
# DNA 1: CAATCTGAATTCCGGTCTCCC
# DNA 2: TGGTGGCTACGACGGGATT
# B14: UAACCCU (DNA:RNA)
# RNA: B1 RNA with A25U, C26A, A29C, A31U
# DNA 1: CAATCTGAATTCCGGTCTCCC
# DNA 2: TGGTGGCTACGACGGGATT
# B15: ACCCGAC (DNA:RNA)
# RNA: B1 RNA with A27C, A29G, C30A, A31C
# DNA 1: CAATCTGAATTCCGGTCTCCC
# DNA 2: TGGTGGCTACGACGGGATT
# B16: UCUGAGU (DNA:RNA)
# RNA: B1 RNA with A25U, A27U, C28G, C30G, A31U
# DNA 1: CAATCTGAATTCCGGTCTCCC
# DNA 2: TGGTGGCTACGACGGGATT
# B17: AGCCCGU (DNA:RNA)
# RNA: B1 RNA with C26G, A27C, A29C, C30G, A31U
# DNA 1: CAATCTGAATTCCGGTCTCCC
# DNA 2: TGGTGGCTACGACGGGATT
# B18: CAGGUCG (DNA:RNA)
# RNA: B7 RNA with U25C, C27G, A30C, C31G
# DNA 1: CAATCTGAATTCCGGTCTCCC
# DNA 2: TGGTGGCTACGACGGGATT
# B19: CUGGCGC (DNA:RNA)
# RNA: B7 RNA with U25C, A26U, C27G, U29C, A30G
# DNA 1: CAATCTGAATTCCGGTCTCCC
# DNA 2: TGGTGGCTACGACGGGATT
# B20: GGUGUGA (DNA:RNA)
# RNA: B7 RNA with U25G, A26G, C27U, A30G, C31A
# DNA 1: CAATCTGAATTCCGGTCTCCC
# DNA 2: TGGTGGCTACGACGGGATT
# Target: T1, RBFOX1 RRM (Homo sapiens, UniProt Q9NWB1 109-208)
# T1 sequence: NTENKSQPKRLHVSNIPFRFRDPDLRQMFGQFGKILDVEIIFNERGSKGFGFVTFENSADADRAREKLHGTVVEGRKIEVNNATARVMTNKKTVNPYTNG
# Test: EMSA; HiTS-Eq, 1 nM pool, 10 min; buffer printed only for the single-RNA assays: 10 mM Tris pH 7.5, 150 mM NaCl, 3.4 mM EDTA, 0.001% NP-40, 30 C
# Conditions: tags: His6 N-terminal (pET28a); label: 5' 32P
# Outline: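 Purified RbFox RRM (wild type or mutant) was equilibrated for 10 min in 50 µL with 1 nM of a 5′-radiolabelled pool of RNA with 7 randomized nucleotides, its flanks annealed to DNA oligonucleotides, across increasing protein concentrations. Free RNA was separated by 8% native PAGE, excised, reverse-transcribed, PCR-barcoded and sequenced on an Illumina HiSeq 2500. Relative association constants came from read-count changes of each variant against the control reaction, normalised to the cognate motif.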
row,Binder,binding signal
1,B1,0.00153 KA relative to UGCAUGU
2,B2,0.00711 KA relative to UGCAUGU
3,B3,0.00415 KA relative to UGCAUGU
4,B4,0.00391 KA relative to UGCAUGU
5,B5,0.000364 KA relative to UGCAUGU
6,B6,0.00588 KA relative to UGCAUGU
7,B7,0.00843 KA relative to UGCAUGU
8,B8,0.0129 KA relative to UGCAUGU
9,B9,0.0103 KA relative to UGCAUGU
10,B10,0.00905 KA relative to UGCAUGU
11,B11,0.00613 KA relative to UGCAUGU
12,B12,0.00754 KA relative to UGCAUGU
13,B13,0.016 KA relative to UGCAUGU
14,B14,0.002 KA relative to UGCAUGU
15,B15,0.00365 KA relative to UGCAUGU
16,B16,0.0138 KA relative to UGCAUGU
17,B17,0.00977 KA relative to UGCAUGU
18,B18,0.0132 KA relative to UGCAUGU
19,B19,0.02 KA relative to UGCAUGU
20,B20,0.0133 KA relative to UGCAUGU

# — paper PMC9911399, “Two distinct binding modes provide the RNA-binding protein RbFox with extraordinary sequence specificity”
